A collection of fitness landscapes (doi:10.1016/j.celrep.2020.107928)
Over roughly 81,000 sequences, “one-hybrid fitness for binding NBS DNA” has its median near -0.1; the highest 2% begin near 0.36. This is one part of the list.

B1: Caulobacter ParB omega fusion; a variant is named by its letters at X, in order, B8GW30 (parent)
chain: MESVVVGEPGMSEGRRGLGRGLSALLGEVDAAPAQAPGEQLGGSREAPIEILQRNPDQPRRTFREEDLEDLSNSIREKGVLQPILVRPSPDTAGEYQIVAGERAWRAAQRAGLKTVPIMVRELDDLAVLEIGIIENVQRADLNVLEEALSYKVLMEKFERTQENIAQTIGKSXSHVANXMRLLXLPDEVQSYLVSGELTAXHARAIAAAADPVALAKQIIEGGLSVRETEALARKAPNLSAGKSKGGRPPRVKDTDTQALESDLSSVLGLDVSIDHRGSTGTLTITYATLEQLDDLCNRLTRGI

Variants of: B1
Test: one-hybrid fitness for binding NBS DNA (the Noc-binding site; scaled: cognate 1, non-cognate 0); higher = stronger binding
Details: with NBS DNA site
How it was run: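 In E. coli USO, a HIS3 reporter with its site placed 19 bp from the promoter was used to select Caulobacter ParB variants randomised at four specificity codons. Growth lasted 48 hours at 37°C on histidine-free M9 containing 0.1 mM IPTG and 5 mM 3-AT. Fitness was taken as the log change in variant-to-wild-type read ratio from Illumina sequencing of pre- and post-selection plasmids, rescaled between the non-cognate and cognate sites.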

Variant	one-hybrid fitness for binding NBS DNA
NEEY	≤ 0.2
WWLG	≤ 0.2
CINR	≤ 0.2
TPAY	≤ 0.2
QATR	0.507
PGTM	≤ 0.2
ICNC	≤ 0.2
DSPR	≤ 0.2
LPMR	≤ 0.2
YWHR	≤ 0.2
WSRR	0.239
VWKT	≤ 0.2
GPIG	≤ 0.2
SLCM	≤ 0.2
YMKT	≤ 0.2
HAMT	≤ 0.2
REAL	≤ 0.2
NIDG	≤ 0.2
KGSS	≤ 0.2
QGKP	≤ 0.2
AAHW	≤ 0.2
YVHT	≤ 0.2
TLKL	≤ 0.2
PKGS	≤ 0.2

Variant	one-hybrid fitness for binding NBS DNA
QTRK	0.546
NVMS	≤ 0.2
PWEL	≤ 0.2
IHKC	≤ 0.2
RSSS	0.437
AELM	≤ 0.2
NGIS	≤ 0.2
FRNT	≤ 0.2
PARS	≤ 0.2
QTAK	≤ 0.2
SNMG	≤ 0.2
TRSC	≤ 0.2
NPLV	≤ 0.2
MDYT	≤ 0.2
TLQK	≤ 0.2
HADK	≤ 0.2
WVNR	≤ 0.2
GNAS	≤ 0.2
FLMS	≤ 0.2
TPSM	≤ 0.2
QELA	≤ 0.2
PQRH	≤ 0.2
HYKG	≤ 0.2
SLME	≤ 0.2

Variant	one-hybrid fitness for binding NBS DNA
AILP	≤ 0.2
SLLV	≤ 0.2
MHDY	≤ 0.2
TSHG	≤ 0.2
ESGT	≤ 0.2
QYYS	0.312
NMWY	≤ 0.2
SWRY	≤ 0.2
GSNL	≤ 0.2
FCGG	≤ 0.2
YWNW	≤ 0.2
DWNR	≤ 0.2
CRRS	≤ 0.2
ERAS	≤ 0.2
PHAY	≤ 0.2
TYQE	≤ 0.2
AQIT	≤ 0.2
VAVS	≤ 0.2
HHPK	≤ 0.2
PMEG	≤ 0.2
TLAG	≤ 0.2
GSRS	≤ 0.2
PHFC	≤ 0.2
KVER	≤ 0.2

Variant	one-hybrid fitness for binding NBS DNA
YPGL	≤ 0.2
HRNV	≤ 0.2
WFSS	≤ 0.2
PTYV	≤ 0.2
VAPC	≤ 0.2
DSTY	≤ 0.2
QRVT	0.69
YSWG	≤ 0.2
RDLC	≤ 0.2
PPSI	≤ 0.2
EYIM	≤ 0.2
IMQG	≤ 0.2
ATSD	≤ 0.2
VQPN	≤ 0.2
HSLR	≤ 0.2
KAAV	≤ 0.2
TPYA	≤ 0.2
RNHY	≤ 0.2
YQRS	≤ 0.2
HAFI	≤ 0.2
GKPN	≤ 0.2
DNAY	≤ 0.2
TFSV	≤ 0.2
FFTC	≤ 0.2

Variant	one-hybrid fitness for binding NBS DNA
CKGC	≤ 0.2
SLMY	≤ 0.2
YLKT	≤ 0.2
ILCA	≤ 0.2
SRHP	≤ 0.2
GRTK	≤ 0.2
RAET	≤ 0.2
NLDS	≤ 0.2
QPPN	≤ 0.2
WYNY	≤ 0.2
RYKF	≤ 0.2
MHHR	≤ 0.2
DMRN	≤ 0.2
QHGL	≤ 0.2
PYYR	≤ 0.2
MVVT	≤ 0.2
LDWG	≤ 0.2
MHNM	≤ 0.2
IIKR	≤ 0.2
STPM	≤ 0.2
SETM	≤ 0.2
FDTG	≤ 0.2
AFSM	≤ 0.2
RHKR	0.701

Variant	one-hybrid fitness for binding NBS DNA
PWTI	≤ 0.2
IQVN	≤ 0.2
NFYG	≤ 0.2
IWPR	≤ 0.2
KYPV	≤ 0.2
ESTC	≤ 0.2
SRME	≤ 0.2
HVNS	≤ 0.2
TFDL	≤ 0.2
RKML	≤ 0.2
SAEQ	≤ 0.2
ARSA	≤ 0.2
GLFE	≤ 0.2
CLLK	≤ 0.2
PYMN	≤ 0.2
CALT	≤ 0.2
QEIP	≤ 0.2
QISG	≤ 0.2
HKSE	≤ 0.2
TNLY	≤ 0.2
VAKE	≤ 0.2
ECGM	≤ 0.2
QREH	0.258
HIRR	≤ 0.2

Variant	one-hybrid fitness for binding NBS DNA
CMID	≤ 0.2
TAHK	≤ 0.2
FEEV	≤ 0.2
GRAF	≤ 0.2
SPYY	≤ 0.2
KPGT	≤ 0.2
FMVT	≤ 0.2
SKDG	≤ 0.2
LDTD	≤ 0.2
KKRA	≤ 0.2
PHAE	≤ 0.2
QTWC	≤ 0.2
DPFE	≤ 0.2
QSYQ	≤ 0.2
CTHP	≤ 0.2
TRMS	≤ 0.2
SMGA	≤ 0.2
LTAH	≤ 0.2
TSWG	≤ 0.2
RCNC	0.302
QFQI	≤ 0.2
SYQT	≤ 0.2
QAKW	0.263
TYPF	≤ 0.2

Variant	one-hybrid fitness for binding NBS DNA
AEQK	≤ 0.2
FVKY	≤ 0.2
TNET	≤ 0.2
IYAR	≤ 0.2
MHTT	≤ 0.2
ILQS	≤ 0.2
EVVF	≤ 0.2
VETV	≤ 0.2
NQSR	≤ 0.2
PGHK	≤ 0.2
ATYL	≤ 0.2
AVSL	≤ 0.2
IRMR	0.223
HMHR	≤ 0.2
VKLS	≤ 0.2
PRHT	≤ 0.2
HTGM	≤ 0.2
FQRT	≤ 0.2
PDWR	≤ 0.2
FVKS	≤ 0.2
YHNW	≤ 0.2
GCKS	≤ 0.2
DYRS	≤ 0.2
KRYC	≤ 0.2

Variant	one-hybrid fitness for binding NBS DNA
QCNY	0.297
NMLD	≤ 0.2
YKCG	≤ 0.2
EDKT	≤ 0.2
HSNG	≤ 0.2
AITR	≤ 0.2
LCHC	≤ 0.2
CPTF	≤ 0.2
TRQC	≤ 0.2
RPDS	≤ 0.2
RFAN	≤ 0.2
MLVG	≤ 0.2
AENK	≤ 0.2
AIGG	≤ 0.2
MNRR	≤ 0.2
GSGF	≤ 0.2
FKQT	≤ 0.2
NRPN	≤ 0.2
GRGF	≤ 0.2
MYLV	≤ 0.2
CNRD	≤ 0.2
RHKE	≤ 0.2
RLMW	≤ 0.2
RTTA	0.252

Variant	one-hybrid fitness for binding NBS DNA
WVSC	≤ 0.2
RSVC	≤ 0.2
CPRR	≤ 0.2
EAPL	≤ 0.2
RFYM	≤ 0.2
SQWR	≤ 0.2
EVII	≤ 0.2
LFAP	≤ 0.2
GEST	≤ 0.2
QHHA	0.238
GARD	≤ 0.2
NVTT	≤ 0.2
PRER	≤ 0.2
FVIV	≤ 0.2
TKHG	≤ 0.2
AIVQ	≤ 0.2
QDPY	≤ 0.2
HTAG	≤ 0.2
RSPR	≤ 0.2
VYNL	≤ 0.2
SVDR	≤ 0.2
WGSW	≤ 0.2
REIT	≤ 0.2
TYTT	≤ 0.2

Variant	one-hybrid fitness for binding NBS DNA
IEHY	≤ 0.2
DTDF	≤ 0.2
NQHG	≤ 0.2
PESG	≤ 0.2
EECT	≤ 0.2
SPEC	≤ 0.2
SYFR	≤ 0.2
YRFL	≤ 0.2
AVIF	≤ 0.2
FHPC	≤ 0.2
QLDE	≤ 0.2
VSRQ	≤ 0.2
QMSW	≤ 0.2
AWEF	≤ 0.2
RNIC	≤ 0.2
TIRF	≤ 0.2
FMSS	≤ 0.2
LHLV	≤ 0.2
RCFK	≤ 0.2
AVFC	≤ 0.2
HNST	≤ 0.2
QCNL	≤ 0.2
RVTS	0.392
QRLR	0.945

Variant	one-hybrid fitness for binding NBS DNA
RHGM	≤ 0.2
AIHF	≤ 0.2
TPDT	≤ 0.2
RETY	≤ 0.2
YSVA	≤ 0.2
RCTF	≤ 0.2
WMAW	≤ 0.2
ALIG	≤ 0.2
FGIR	≤ 0.2
THSM	≤ 0.2
VADT	≤ 0.2
YMTG	≤ 0.2
MLTT	≤ 0.2
FTYK	≤ 0.2
VLGA	≤ 0.2
FHSG	≤ 0.2
ACVS	≤ 0.2
LPLF	≤ 0.2
GSIR	≤ 0.2
CVLS	≤ 0.2
LSYG	≤ 0.2
VNTW	≤ 0.2
TQPM	≤ 0.2
NLGP	≤ 0.2

Variant	one-hybrid fitness for binding NBS DNA
KWQA	≤ 0.2
CSKC	≤ 0.2
SVVR	≤ 0.2
ALVS	≤ 0.2
CFSA	≤ 0.2
ALNV	≤ 0.2
QMKI	0.322
AEYG	≤ 0.2
NVGL	≤ 0.2
WVRY	≤ 0.2
SHWG	≤ 0.2
QITR	0.417
RQGA	≤ 0.2
GKTT	≤ 0.2
KHLS	≤ 0.2
NTMV	≤ 0.2
TSFT	≤ 0.2
GMHS	≤ 0.2
